{"source": "patent US20210338626A1", "about": "“METHODS FOR TREATING OR PREVENTING A VIRAL INFECTION OR INHIBITING VIRAL REPLICATION” (Dalcor Pharma UK Ltd., Leatherhead, Zug Branch, priority 2020, published 2021)", "key": {"[1]": {"biological_target": "T1, main 3CL protease of SARS-CoV-2 (Severe acute respiratory syndrome coronavirus 2, UniProt P0DTD1)", "assay": "Inhibition of enzymatic activity of the main 3CL protease in vitro", "assay_type": "biochemical"}, "[2]": {"biological_target": "T1, main 3CL protease of SARS-CoV-2", "assay": "Reversibility of inhibition of the main 3CL protease (dilution and filtration through 3 kDa membrane)", "assay_type": "biochemical", "settings": "24 hours incubation at high concentration, three cycles of dilution and filtration, concentration down to 0.2 μM"}}, "note": "Read-outs that look alike come from different tables or passages of the source."}
{"smiles": "CCC(CC)CC1(C(=O)Nc2ccccc2S)CCCCC1", "note": "[Dalcetrapib thiol]", "values": [{"measurement": "IC50", "setting": "[1]; incubated 20 hours with the protease at room temperature before addition of substrate, read-out: IC50, main 3CL protease activity", "value": "14.4 ± 3.6", "unit": "µM"}, {"measurement": "IC50", "setting": "[1]; incubated one hour with the protease, read-out: IC50, main 3CL protease activity", "value": "100 ± 3.6", "unit": "µM"}]}
{"smiles": "CCC(CC)CC1(C(=O)Nc2ccccc2SC(=O)C(C)C)CCCCC1", "note": "[Dalcetrapib]", "values": [{"measurement": "IC50", "setting": "[1]; IC50, main 3CL protease activity, incubated 20 hours with the protease at room temperature before addition of substrate", "value": 14.4, "unit": "µM"}, {"measurement": "IC50", "setting": "[1]; IC50, main 3CL protease activity, incubated one hour with the protease", "value": 100, "unit": "µM"}, {"measurement": "inhibition of protease activity persisting after elution", "setting": "[2]", "value": 97.6, "unit": "%"}]}
